Results as given in the supplement of paper PMC3334620.
Over roughly 33,000 sequences, “E-score (-0.5 to 0.5)” has its median near -0.035; the highest 2% begin near 0.34. The list shows a part of the results.

The sequences below were run against T1, Mot3 (UniProt P54785) (assay: PBM E-score (8-mer binding enrichment) (E-score (-0.5 to 0.5)); higher = stronger / more preferred TF binding; most listed sequences are background and not binding sites). Conditions: protein concentration: 200 nM; construct: GST-full length.
T1 sequence: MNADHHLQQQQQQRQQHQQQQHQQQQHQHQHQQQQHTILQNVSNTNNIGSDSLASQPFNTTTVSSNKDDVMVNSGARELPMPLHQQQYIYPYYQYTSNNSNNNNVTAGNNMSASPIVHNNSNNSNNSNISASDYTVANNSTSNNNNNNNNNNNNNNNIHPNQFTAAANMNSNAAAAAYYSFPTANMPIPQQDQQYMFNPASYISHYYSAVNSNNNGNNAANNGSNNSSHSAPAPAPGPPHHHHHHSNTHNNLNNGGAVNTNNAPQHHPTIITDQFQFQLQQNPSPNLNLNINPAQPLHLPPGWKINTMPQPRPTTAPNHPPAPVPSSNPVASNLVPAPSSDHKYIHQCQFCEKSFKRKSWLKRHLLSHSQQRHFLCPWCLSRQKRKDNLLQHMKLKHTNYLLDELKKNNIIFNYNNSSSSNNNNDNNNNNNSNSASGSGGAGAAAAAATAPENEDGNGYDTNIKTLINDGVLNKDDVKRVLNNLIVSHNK
Experimental: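 Universal 'all 10-mer' protein binding microarrays (Agilent AMADID 015681) probed with GST-tagged S. cerevisiae TFs (full-length or DBD) made by in vitro transcription/translation (PURExpress), about 100-200 nM. Bound TF was detected with fluorescent anti-GST. Each ungapped 8-mer (which stands for itself and its reverse complement) is scored by the PBM enrichment score (E-score), a modified Wilcoxon-Mann-Whitney statistic from -0.5 to +0.5, computed with the Universal PBM Analysis Suite. Scale: above 0.35 generally sequence-specific binding.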

Sequence	PBM E-score
CCAGCGCA	-0.175
AAGGTACC	0.419
GTTACAAA	0.223
TACCCTCA	-0.17
GCCCAGTA	-0.0683
AGGGGCTC	-0.124
ATCCACAA	0.0047
CACGTCGC	-0.0751
GCAGGAGC	0.0355
GAGATATA	-0.0593
ATTCCTTC	0.0162
AAGGCGAC	0.00796
CGTTGTGC	0.111
CTATCGGC	-0.167
CACACTCG	0.0595
CAGCTGAC	0.033
ACGGCAGT	-0.0853
GATCAGAC	-0.0844
AAGCCTCG	-0.129
CCTTGTAA	0.392
CCGCCCGC	-0.305
ATTATTGC	0.201
CCCGGCTC	-0.33
CGAGCGTC	-0.261
CCTTCGAA	0.0727

Sequence	PBM E-score
AGACTCTA	-0.162
CAATCAAA	0.0454
AACAATCC	0.142
CCCCTGTA	0.115
CGGCTGTC	-0.232
ACACTAAT	0.0509
TAGATTAA	0.0794
GGAAACAA	0.0425
AATACGGC	0.0771
AGTTGTGA	0.00694
ACGAATAC	0.18
CCAAACAA	-0.0179
ACACCATG	0.161
CCAGAAAC	-0.155
CTTATACC	-0.042
AGTCTAAA	-0.158
ACGCCAGT	-0.0132
ACCAACTC	-0.12
GTTTCGTA	0.0604
CTTCCGAC	-0.0565
GGGGCCCC	-0.33
ATTATAAT	0.0317
CTTGTGGC	-0.206
GGGTCTTA	-0.16
CACGGCAC	0.132

Sequence	PBM E-score
ACAATCAG	0.152
CACTTAAC	0.0945
ACCTCCGT	-0.0274
GTACGTTA	0.234
AACCCAAG	0.018
CAGTAGGC	0.219
AGTACGAT	-0.0791
CGGGGCGA	-0.151
CTCGAGAC	-0.0218
ATCAACTC	0.00418
TGTACGAA	0.17
CCGCGCGA	-0.165
GTTATATA	0.187
AAGTTGCA	0.00119
GAAGCAAA	-0.00288
AAGCGGCA	-0.0957
ACATGTGG	0.215
AAGTTGGA	0.0438
GCCTTAAA	0.349
CTTTAGCA	-0.00329
CGGAAGAC	0.0461
CCATGAGG	-0.211
GCAGAAAA	0.1
ACCCATGG	-0.2
CGATATTA	0.0296

Sequence	PBM E-score
CACTATTA	0.0283
CATCAGAC	-0.00787
ACGCCCAT	-0.153
CGTTAGGA	0.0432
CGGTTTAA	0.0367
TCATACGA	0.0661
CTTTCATC	-0.0692
GAGCTGAC	-0.152
CGCGGCCC	-0.198
GATTCTGC	-0.0101
GTGGTAAA	0.176
CAGATTCA	0.18
ACCCTTCC	-0.112
ATCCCGAT	-0.0565
GCTAATTA	0.148
ATTGAAAA	0.104
ACTTCGGC	-0.0943
GCGATCGA	-0.0406
ATCAAACG	0.0779
AGCTCCCA	-0.179
GTAGAGAA	-0.0212
ATTACTGC	0.0976
CACGGTCC	-0.0249
CCACTTCA	-0.172
AACATCTA	0.122

Sequence	PBM E-score
AAAAACTC	0.0308
CCAGAATA	0.0922
CCAACTAA	0.0699
ACCGTGCA	-0.0784
AAATCATC	-0.153
GCCATAGC	-0.178
CCTGTAAC	0.295
AAAAATGT	0.213
AGACTCTG	-0.0696
CACTATGA	0.0446
ACTATAAT	0.111
CCCAACAC	0.00126
CCACAAAA	0.0078
ACGTTGCG	0.0802
AGGAAATC	0.373
AACGCCGA	0.0249
CTGCGACC	-0.239
AGCAGTGG	-0.344
AGGTCTGA	-0.0823
TTATCCAA	0.0557
GACGGAAC	-0.263
GACAGCGC	-0.0391
AGAAAAAT	0.133
ACTCGAGG	-0.101
CCTTGCCG	-0.146

Sequence	PBM E-score
AGCGGAAC	-0.185
CTAGCTTA	-0.111
ATAGCGGA	-0.229
GGACAATA	-0.0384
CCAAGCAA	-0.0858
CACGTGCC	0.318
CTGTTTCC	0.103
AGTTAGAG	-0.21
AAGTAGCT	-0.0175
GTTGTATA	0.288
AAGAGGCA	0.391
AATGATCC	-0.0661
AGAACAAG	0.212
ACGTGTGC	0.119
AAAGTCGG	-0.0308
AGAATTGA	0.0762
GTTAGTGA	0.16
CCATGGCA	-0.113
TAGGCGCA	0.0665
GAAACAGC	-0.0498
CCGCTAAC	-0.0566
CACAATCG	0.018
GCGGAGTA	-0.148
ACCCGGGA	-0.0304
CTGTCATA	0.102

Sequence	PBM E-score
ACCGGTCG	-0.123
CGAGAAGC	-0.128
CCCATCAC	-0.0288
CCCTGATC	-0.215
ATCACAGC	0.0381
AATGGGCC	-0.258
ACTCCGCA	-0.183
ACAGAACA	0.145
CCTGCTAC	0.146
CAAATGTA	0.272
CCGGGTGC	-0.261
GCTAAATA	0.0782
CTATCTTA	0.0479
CTCAACAG	0.127
GTCAGAAC	-0.0741
CAATATCA	0.0343
CAGCGGAA	-0.213
AGGTTACT	0.0805
CACCCCGG	-0.244
GAAGACGC	-0.0204
AATCACAC	0.199
GGAGTTAC	0.0562
GACGATTA	0.0564
CCGACCCG	-0.117
GGTCCTCA	-0.167

Sequence	PBM E-score
AATCATGT	0.329
AGTCACCA	0.00724
ATGCCTTA	0.342
ATATTTGA	-0.0669
AGGTGACA	-0.147
ACATAACA	0.332
AATGGCAG	-0.0791
ATGGTGCG	-0.151
ACGGCCCT	-0.224
CTAAGCTC	-0.0294
CACTTAAG	0.19
GAGTTTGC	0.0403
GCACGCCC	-0.115
GCCCATGA	-0.215
ACAGAGCG	-0.052
ATTGTGCG	-0.0567
ACTTAAGT	0.133
ACTGTCTC	-0.138
TCTGGACA	0.0548
CATGAGTA	0.00289
AGGATTCG	-0.194
AGCTTCGA	-0.0819
CCCGTCTA	-0.0225
ACAGACCG	0.0365
ACACATCA	0.156

Sequence	PBM E-score
CGATTAAC	0.039
CATTACCG	-0.0399
GAGGGGAC	-0.265
ACGTTGGC	0.0862
CGTATTGC	-0.0223
GGCGACCC	-0.198
GACCATAC	-0.304
CGGGAATA	0.0659
AGCAGAAC	0.131
CTTGGACC	-0.217
GGGGTTAC	-0.121
CTAGCACC	-0.0791
ACCTTCCC	-0.109
AGTTAAGA	0.0706
CGCTGACC	-0.12
AAGTTCAG	0.0796
AAACGCAG	0.14
AGCACTTG	-0.232
GACTGGTA	-0.00685
ACAATCCC	-0.0456
AAGTTGGT	0.0859
CTACTATA	-0.0503
ACAAGGAA	0.263
GCGCGCAA	-0.00842
CAAGTGTA	0.0318

Sequence	PBM E-score
ACTAGAGA	-0.156
CCGGTCTC	-0.24
AGCATGCG	0.0838
CGGGCGAC	-0.233
AGTCGTGA	-0.144
CTATGTGC	0.0921
GGGGGTTA	-0.284
CGCCGTCC	-0.0658
CCGGGATA	-0.13
GTACCGGA	0.104
AGTACTCA	-0.0481
ACTTCGCT	-0.0775
CATAGTTA	0.0396
ACACGCTG	0.256
CGAAACCC	-0.0567
ATAAGCTC	-0.207
AATCTATG	-0.00189
CCAGCTGC	-0.229
GATTTGAC	0.0417
CTGTCGGC	-0.252
AGCGTGGC	-0.152
GAGGACAA	-0.138
TACAACGA	0.164
CAATTTGA	0.0368
CGGAGGTC	-0.212

Sequence	PBM E-score
CCCCGCGA	-0.285
CCCTGACA	-0.109
ATAGCCCA	-0.044
ACTTGCCC	0.0267
AATATACT	0.0246
CCTTACAA	0.211
AGTAGTAG	-0.047
CAAACTAA	0.182
AAGGATTC	-0.0475
GGGACCAA	-0.185
GCTCAGCC	-0.0736
TATGGTGA	-0.158
CGATCCCG	-0.113
GAGGGGCC	-0.141
CTCCGCCA	-0.164
ACACTCTC	0.0843
AGCGAAAC	0.0281
GCATCTCC	-0.211
GGTAGAAA	-0.12
CGCCAACC	-0.161
AGATATAT	0.0802
CCGCCACA	-0.111
CTTTTTCC	0.0963
AACAACCT	0.148
AACACGTC	0.316

Sequence	PBM E-score
AGGGTATC	-0.212
CTCTAAAA	0.00053
CAAGTTAG	-0.0126
AGTACGTC	-0.145
AATACTTG	0.136
CACGCAGC	0.0415
ATAGATCG	-0.174
AGGTCAGC	-0.116
CGCCTAAA	0.18
TATATCAA	0.0715
CCCATGCG	-0.161
AAGATTTA	0.154
GCAGCTAC	-0.192
CCCAAACA	0.158
CGCGATTA	-0.0367
AATATCGC	-0.204
ATTGATCA	-0.0342
AGTGACCC	-0.338
GATTTCGC	0.167
CCACGCGC	-0.243
GCGTGTAC	0.337
CCGTTGTA	0.125
GAGTTTCA	0.0252
ACCTGAAC	0.0861
GCTGATCC	-0.291

Sequence	PBM E-score
AGTCCATG	-0.091
CGGTACAA	-0.0471
AGAATAAC	0.122
AAAATATC	0.0581
CGTTCTAA	0.0677
AAGATGGG	-0.22
GGCTCCCA	-0.141
ATGGAGGG	-0.103
ATTGCCGC	-0.054
CAACCACC	-0.163
TCACCCAA	-0.0304
GCCGTCGA	-0.277
AGGCCTTG	-0.141
AAACAACG	0.0566
GTGGATAA	-0.017
GAGGTCGA	-0.138
AGAAGCCT	0.0499
AGGCTGGC	-0.2
CGGCCCGC	-0.231
CGGTAGAG	-0.25
CGTTAAGA	0.163
CTCACAAC	0.0388
ATCCTCGA	-0.0919
TAATCGGA	0.0761
TGTGGTAA	0.243

Sequence	PBM E-score
AGTCACAT	0.107
ATGGTCAC	-0.265
AACCGGAC	-0.0484
CGCGAGAG	-0.162
ACGGAAAA	0.0396
ATAGAGGA	-0.134
ATGTAGCG	0.0644
AGGCAGTG	0.0624
ACCTCTCG	-0.28
GAGATAAA	0.0312
ACCTCAGA	-0.264
AATGGATC	-0.198
ACCGGCCA	-0.23
GAGATCCC	-0.261
AGGCCGCC	-0.229
TGCTTCAA	0.0489
ACATTCCA	0.103
CCACAGAG	-0.111
CCAAAACA	0.228
